The values that follow come from the supplement of paper PMC9446081.

Structures are written as SMILES. The campaign covered roughly 39,000 compounds. About 220 (0.56%) showed activity. The list shows a part of the results.
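Also: static incubation at 37 °C against the wild-type strain, values averaged over two biological replicates.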

This assay deals with Escherichia coli K-12 BW25113. Description: relative growth (OD600 normalised to plate interquartile mean) (fraction); higher = less growth inhibition, active = 0.2 or less. To be noted: 50 µM; LB; incubation time: overnight (16-24 h).
Regarding `CCC(=O)N(C)C[C@H]1Oc2ncc(C#C[C@@H](C)O)cc2C(=O)N([C@@H](C)CO)C[C@@H]1C`, the relative growth was inactive: 0.991.

As for `CCNC(=O)C[C@@H]1CC[C@@H]2[C@H](COC[C@@H](O)CN2C(=O)Nc2c(C)noc2C)O1`, the relative growth is inactive: 1.02. As for `CC(C)NC(=O)N(C)C[C@@H]1OCCCC[C@@H](C)Oc2ccc(NC(=O)Nc3cccc4ccccc34)cc2C(=O)N([C@@H](C)CO)C[C@@H]1C`, the relative growth was inactive: 1.01. `CC(C)NC(=O)Nc1cccc2c1O[C@@H](CN(C)S(=O)(=O)c1ccc(Cl)cc1)[C@H](C)CN([C@H](C)CO)C2=O`: the relative growth is inactive: 1. As for `OC[C@H]1CC[C@@H]2O[C@H](CCc3ccc(C#Cc4ccccc4)cc3)[C@H](n3cc(-c4ccccc4)nn3)C[C@@H]2O1`, the figure is inactive: 1.05; as for `C[C@@H]1CCCCO[C@@H](CN(C)Cc2ccc(Cl)c(Cl)c2)[C@H](C)CN([C@@H](C)CO)C(=O)c2cc(N(C)C)ccc2O1`, inactive: 1. On to `C[C@H]1CN([C@@H](C)CO)C(=O)c2ccccc2-c2ccccc2CO[C@H]1CN(C)C(=O)Nc1ccc(F)cc1`, for which the relative growth was inactive: 0.973. As for `C[C@@H]1CN([C@H](C)CO)C(=O)c2cccc(NS(=O)(=O)c3ccccc3)c2O[C@@H]1CN(C)S(C)(=O)=O`, the figure is inactive: 1.01. For `COc1cccc(NC(=O)N(C)C[C@H]2Oc3ncc(C#Cc4ccncc4)cc3C(=O)N([C@H](C)CO)C[C@H]2C)c1`, the relative growth is inactive: 1. The figure for `NC(=O)Cn1c(=O)c2ccccc2n(CC(N)=O)c1=O` is inactive: 1.02; for `C[C@H]1CN([C@@H](C)CO)C(=O)c2cccc(NC(=O)c3nc4ccccc4s3)c2O[C@H]1CN(C)CC1CCCCC1` it is inactive: 0.994; for `C[C@@H]1CCCCO[C@@H](CN(C)C(=O)Nc2ccc(F)cc2)[C@H](C)CN([C@H](C)CO)C(=O)c2cc(NC(=O)Nc3ccc(F)cc3)ccc2O1` it is inactive: 1.04. The figure for `Cc1ccc(S(=O)(=O)Nc2ccc3c(c2)C(=O)N([C@H](C)CO)C[C@@H](C)[C@H](CN(C)C(=O)Nc2ccccc2)OCCCC[C@H](C)O3)cc1` is inactive: 1.01; for `C[C@H]1CN([C@@H](C)CO)C(=O)Cc2cc(NS(=O)(=O)c3ccc(F)cc3)ccc2O[C@H]1CN(C)S(C)(=O)=O` it is inactive: 0.995; for `C[C@@H]1CN([C@@H](C)CO)C(=O)c2cccc(NS(=O)(=O)c3ccc(F)cc3)c2O[C@H]1CN(C)Cc1ccc(Oc2ccccc2)cc1` it is inactive: 1.02. In the case of `C[C@@H]1CN([C@@H](C)CO)C(=O)Cc2cc(NS(C)(=O)=O)ccc2O[C@H]1CN(C)C(=O)Nc1ccc2c(c1)OCO2`, the relative growth is inactive: 0.999.

Regarding `O=C(C[C@@H]1C=C[C@@H](NS(=O)(=O)c2ccc(F)cc2)[C@@H](CO)O1)NCCN1CCCCC1`, the relative growth is inactive: 0.931. Turning to `C[C@@H]1CN([C@@H](C)CO)C(=O)CCCn2cc(nn2)CO[C@H]1CN(C)C(=O)Nc1cccc(Oc2ccccn2)c1`, the relative growth is inactive: 0.979. Regarding `C[C@@H]1CCCCO[C@H](CN(C)C(=O)Cc2ccccc2)[C@H](C)CN([C@H](C)CO)C(=O)c2cc(NC(=O)Nc3ccccc3)ccc2O1`, the relative growth was inactive: 1.04. In the case of `CCc1cc(=O)oc2cc(O[C@@H](C)C(=O)N[C@@H](CCCNC(=N)N)C(=O)O)ccc12`, the relative growth is inactive: 0.987. Turning to `C[C@H](CO)N1C[C@H](C)[C@H](CN(C)S(C)(=O)=O)Oc2ncc(C#Cc3ccc(C(F)(F)F)cc3)cc2C1=O`, the relative growth is inactive: 0.966. Take `C[C@H](CO)N1C[C@H](C)[C@@H](CN(C)S(=O)(=O)c2ccccc2F)Oc2ncc(C#Cc3ccncc3)cc2C1=O`: the relative growth was inactive: 0.995.

As to `CS(=O)(=O)CCNCc1ccc(-c2ccc3ncnc(Nc4ccc(OCc5cccc(F)c5)c(Cl)c4)c3c2)o1`, the relative growth was inactive: 0.937. `C[C@@]1(C(=O)O)CCCC[C@@H]1N`: the relative growth was inactive: 1.02.

For `O=C(Nc1nnc2n1CCS2)C1CC1`, the relative growth was inactive: 1.05.

Turning to `Cc1ccc2nccc(C(=O)N3CCC[C@@H](Cn4cc(C(C)(C)N)nn4)C3)c2c1`, the relative growth is inactive: 1. For `CC(=O)N1[C@H](CO)[C@@H](c2ccccc2)C12CN(C(=O)CN1CCOCC1)C2`, the relative growth is inactive: 0.949. As to `Cc1ccc(S(=O)(=O)N2C[C@H](O)COC[C@@H]3O[C@H](CC(=O)NCCCN(C)C)CC[C@H]32)cc1`, the relative growth was inactive: 1.01.

For the compound `NNC(=O)CCc1ccccc1`, the relative growth was inactive: 1.01. Take `O=C(C[C@@H]1C[C@@H]2c3cc(NC(=O)NC4CCCC4)ccc3O[C@@H]2[C@H](CO)O1)NCc1ccc2c(c1)OCO2`: the relative growth is inactive: 0.975. As for `COc1cccc(S(=O)(=O)N(C)C[C@H]2Oc3cc(Br)ccc3S(=O)(=O)N([C@@H](C)CO)C[C@H]2C)c1`, the figure is inactive: 0.986; as for `O=C(CN1CCOCC1)N/N=C/c1ccc([N+](=O)[O-])o1`, inactive: 0.801. In the case of `CS(=O)(=O)NCc1ncn2c1CN(C(=O)[C@H]1CCCO1)CCC2`, the relative growth was inactive: 0.991. For `C[C@H]1CN([C@@H](C)CO)C(=O)Cc2cc(NC(=O)Cn3cnnn3)ccc2O[C@H]1CN(C)Cc1ccc(C(F)(F)F)cc1`, the relative growth is inactive: 1.02. The figure for `Cc1noc(C)c1S(=O)(=O)Nc1ccc2c(c1)C(=O)N([C@@H](C)CO)C[C@H](C)[C@@H](CN(C)C(=O)NC(C)C)O2` is inactive: 0.974; for `COc1ccc(NC(=O)N2C[C@H](O)COC[C@H]3O[C@H](CC(=O)NCc4ccccc4OC)CC[C@@H]32)cc1` it is inactive: 1; for `Cc1noc(C)c1S(=O)(=O)Nc1ccc2c(c1)C(=O)N([C@@H](C)CO)C[C@H](C)[C@H](CN(C)S(=O)(=O)c1c(C)noc1C)O2` it is inactive: 1.02. Consider `CCOC(=O)N(C)C[C@H]1OCc2cnnn2CCCC(=O)N([C@@H](C)CO)C[C@@H]1C`, for which the relative growth was inactive: 0.998.

In the case of `C[C@@H]1CN([C@@H](C)CO)C(=O)Cc2cc(NS(=O)(=O)c3cccs3)ccc2O[C@H]1CN(C)Cc1ccc(Cl)c(Cl)c1`, the relative growth was inactive: 0.999. As for `C[C@@H]1CCCCO[C@H](CN(C)C(=O)Cc2ccccc2)[C@@H](C)CN([C@H](C)CO)C(=O)c2cc(NC(=O)Nc3ccc(F)cc3)ccc2O1`, the figure is inactive: 0.974. For `C[C@H](CO)N1C[C@H](C)[C@H](CN(C)S(=O)(=O)c2ccccc2)Oc2c(NS(C)(=O)=O)cccc2C1=O`, the relative growth is inactive: 0.974. `COc1ccc(S(=O)(=O)Nc2ccc3c(c2)C(=O)N([C@H](C)CO)C[C@H](C)[C@H](CN(C)S(=O)(=O)c2cn(C)cn2)O3)cc1`: the relative growth is inactive: 1.02.

Consider `C[C@@H]1CCCCO[C@@H](CN(C)C(=O)CCC(F)(F)F)[C@H](C)CN([C@@H](C)CO)C(=O)c2cc(NC(=O)NC3CCCCC3)ccc2O1`, for which the relative growth is inactive: 0.99.

With `Cc1noc(C)c1NC(=O)N(C)C[C@H]1OCCCC[C@@H](C)Oc2ccc(NC(=O)Nc3ccc(C(F)(F)F)cc3)cc2C(=O)N([C@H](C)CO)C[C@@H]1C`, the relative growth was inactive: 1.

As for `C[C@H](CO)N1C[C@H](C)[C@H](CN(C)C(=O)Nc2cccc(Cl)c2Cl)OCc2ccccc2-c2c(n(C)c3ccccc23)C1=O`, the relative growth is inactive: 0.985. Consider `COc1ccc2c3c(n(c2c1)C)[C@@H](CO)N(C[C@]13CN(C1)C(=O)c1ccncc1)C(=O)C1CCCCC1`, for which the relative growth was inactive: 0.988. `Cc1noc(C)c1S(=O)(=O)Nc1cccc2c1O[C@@H](CN(C)Cc1ccncc1)[C@@H](C)CN([C@@H](C)CO)C2=O`: the relative growth is inactive: 1.02.

As for `C[C@H]1CN([C@@H](C)CO)C(=O)c2cccc(NC(=O)Nc3ccc(C(F)(F)F)cc3)c2O[C@@H]1CN(C)CC1CCCCC1`, the relative growth was inactive: 0.834. The figure for `C[C@@H]1CCCCO[C@@H](CN(C)C(=O)Nc2ccc(C(F)(F)F)cc2)[C@@H](C)CN([C@H](C)CO)C(=O)c2cc(NS(=O)(=O)c3cccs3)ccc2O1` is inactive: 1; for `O=C(C[C@H]1CC[C@H]2[C@@H](COC[C@@H](O)CN2C(=O)Nc2cc(Cl)cc(Cl)c2)O1)N1CCOCC1` it is inactive: 0.967; for `CCCCC(=O)C1CCCC=C1C(=O)O` (stereo not drawn) it is inactive: 1.04.

On to `C[C@@H]1CN([C@H](C)CO)C(=O)Cc2cc(NC(=O)C3CCCCC3)ccc2O[C@H]1CN(C)S(C)(=O)=O`, for which the relative growth is inactive: 1. With `COc1ccc(NC(=O)Nc2ccc3c(c2)C(=O)N([C@@H](C)CO)C[C@H](C)[C@@H](CN(C)Cc2ccc(-c4ccccc4)cc2)O3)cc1`, the relative growth was inactive: 1.02.

For `COc1ccc(S(=O)(=O)N(C)C[C@H]2Oc3ccc(NS(=O)(=O)c4ccccc4)cc3CC(=O)N([C@H](C)CO)C[C@H]2C)cc1`, the relative growth is inactive: 0.994.

With `COc1ccc(NC(=O)N(C)C[C@H]2OCCCC[C@H](C)Oc3ccc(NC(=O)Nc4c(C)noc4C)cc3C(=O)N([C@@H](C)CO)C[C@@H]2C)cc1`, the relative growth was inactive: 0.98. For `Cn1c(=O)[nH]c2nnc(-c3ccccn3)nc2c1=O`, the relative growth is inactive: 0.816. For `CNCC(O)c1ccc(O)c(O)c1.O=C(O)C(O)C(O)C(=O)O` (stereo not drawn), the relative growth was inactive: 1.17.

For `COc1ccc(NC(=O)N(C)C[C@H]2Oc3ccc(NC(=O)Nc4cccc5ccccc45)cc3CC(=O)N([C@H](C)CO)C[C@H]2C)cc1`, the relative growth is inactive: 0.976. For `CNC(=O)CC1CCNCC1`, the relative growth is inactive: 1.01. Consider `C[C@@H]1CN([C@H](C)CO)C(=O)c2cc(NS(=O)(=O)c3ccc(Cl)cc3)ccc2O[C@H]1CN(C)Cc1ccc(C(=O)Nc2ccccc2N)cc1`, for which the relative growth was inactive: 1. Regarding `C[C@@H]1CN([C@@H](C)CO)S(=O)(=O)c2ccc(C#Cc3ccncc3)cc2O[C@H]1CN(C)S(=O)(=O)c1ccccc1`, the relative growth is inactive: 1.02. On to `CCC1(O)C(=O)OCc2c1cc1n(c2=O)Cc2cc3cc(O)ccc3nc2-1` (stereo not drawn), for which the relative growth is inactive: 1. The figure for `CC(=O)N1[C@H](CO)[C@H](c2ccccc2)[C@@H]1CNC(=O)CN1CCOCC1` is inactive: 0.988.
